# Results published in ChEMBL document CHEMBL4888484, “Replenishing the malaria drug discovery pipeline: Screening and hit evaluation of the MMV Hit Generation Library 1 (HGL1) against asexual blood stage Plasmodium falciparum ,using a nano luciferase reporter read-out” (2022).
# The whole screen tested about 150,000 compounds, of which about 540 (0.36%) showed an effect of 50% or more. Some of the results follow.
# Test system: Plasmodium falciparum
# Experiment: Primary screen in NF54 nanoGlo assay, in single point, at 2uM, 72h; a lower Z score goes with more inhibition
# Format: functional, Erythrocyte
# Settings: timepoint 72 hour
Structure (SMILES),% Inhibition,Z score
COCCc1noc([C@H](C)NC(=O)c2cnn[nH]2)n1,-9%,1.28
CC(=O)Nc1ccc(CN2CC[C@H](c3nc4ccccc4[nH]3)C2)cc1,26%,-3.05
Cc1cc2nc(-c3cccs3)cc(C(=O)N3CCC[C@H](C)C3)c2cc1C,-8%,1.14
CCN(CC)C(=O)c1cc(C(C)(C)C)n2nc(C)nc2n1,-15%,2.1
COc1cc(OC)cc(-c2nc(-c3cccc(-c4ccnn4C)c3)no2)c1,-7%,0.83
CCn1nccc1CN(C)CCc1scnc1C,-3%,0.63
COCCc1nnc(C2CCN(Cc3ccco3)CC2)[nH]1,0%,-0.07
CN(CC(O)C(F)(F)F)S(=O)(=O)CC1CCCO1 (centres undefined),-3%,0.4
C[C@H](NS(=O)(=O)c1ccc(F)cc1F)c1cc(F)ccc1N1CCN(C)CC1,-1%,0.1
Cc1ccc(C(=O)N2CC[C@H](c3nc(N(C)C)ncc3C(=O)NC(C)C)C2)cn1,-3%,0.38
COCC(=O)N[C@@H]1CN(Cc2ccc(C)s2)CC[C@@H]1CO,3%,-0.58
O=S(=O)(NC1C2CCC(C2)C1CO)c1cccc2c1N=S=N2 (centres undefined),5%,-0.9
CCc1[nH]nc(N[C@@H](C)C2CCOCC2)c1C,-4%,0.61
O=C(NCc1ccccc1)c1cc(NC2CCC(O)CC2)ccn1 (centres undefined),31%,-3.5
N#Cc1cccc(CN2CCC[C@H](c3nnc(C4CC4)[nH]3)C2)c1,-5%,0.55
COCCn1cc(S(=O)(=O)N(Cc2ccccc2)Cc2ccccc2)ccc1=O,-2%,0.47
CC(C(=O)Nc1nccs1)N1CCCC(c2ccn[nH]2)C1 (centres undefined),50%,-9.08
C[C@@H](C1CC1)n1nccc1NCc1ccc(Cl)cc1,34%,-3.85
Cc1nnsc1C(=O)Nc1nn(C)c2c1C[C@H](C)C(=O)N2,16%,-2.08
CC(C)(C)OC(=O)NC[C@H](NC1CCOCC1)C1CCCC1,-1%,0.17
Brc1ccc(OCCN2CCCN3CCC[C@H]3C2)cc1,-12%,2.28

Structure (SMILES),% Inhibition,Z score
C[C@@H](CS(C)(=O)=O)C(=O)N(C)CC1CCCCCCC1,1%,-0.12
CC(C)c1nc(CNC[C@]2(c3ccccc3)CC2(C)C)co1,-15%,1.87
O=C(NCCN1CCOCC1)c1ccccc1NC(=O)c1cnoc1C1CC1,-14%,1.8
C=CC[C@]1(C(=O)O)CCCN(Cc2c(C)n[nH]c2C)C1,5%,-1.04
Cc1cc(=O)n(Cc2nc3c(cnn3C)c(=O)[nH]2)cc1C(F)(F)F,6%,-0.73
O=c1ccncn1CC1CCN(c2ncnc3c2CCC3)CC1,-1%,0.13
CC(C)c1cncnc1NCc1cccnc1Oc1ccc(F)c(F)c1,-2%,0.43
O=C1CCCc2cc(C(=O)NCCCn3nc4ccccn4c3=O)ccc2N1,2%,-0.18
Cc1oc(Br)cc1C(=O)NC1(C)CCOC1C1CC1 (centres undefined),-5%,0.58
COc1cc2c(N3CCC([C@H](O)C(=O)NC4CC4)CC3)ccnc2cc1F,-6%,0.61
CCCC[C@H](Oc1ccc(C(C)(C)CC)cc1C(C)(C)CC)C(=O)Nc1ccc(NC(=O)C(F)(F)C(F)(F)C(F)(F)F)c(O)c1,39%,-4.52
N#Cc1ccc(CN2CCC(NC(=O)C[C@@H]3NC(=O)c4ccccc4NC3=O)CC2)cc1,-4%,0.47
CCn1nc(C)c2c1c(=O)n(Cc1ccco1)c(=O)n2CC(=O)NC1CCCC1,5%,-0.45
COc1cc(F)c(CN2C[C@@H](CN3CCCCC3)[C@@H](CO)C2)cc1OC,-7%,1.2
O=C(c1cc(C2CC2)n[nH]1)N1CC[C@@]2(CCCN(CC3CCC3)C2=O)C1,-11%,1.83
CCCN1C(=O)c2cc(C(=O)Nc3ccc(C)c(F)c3)ccc2[C@H]1Nc1ccc(C)c(F)c1,-2%,0.29
Cc1nnnn1CCC(=O)NCCc1noc(C(F)(F)F)n1,-5%,1.01
N#Cc1nc(C2CC2)oc1N1CCN(C(=O)c2csnn2)CC1,-4%,0.49
CN1CCN(Cc2cccnc2)c2ccccc21,4%,-0.5
CC1CCC(C(=O)O)C(C)N1Cc1noc(C2CCC2)n1 (centres undefined),-2%,0.34
CCn1nc(C)c(CNc2nc3c(s2)c(C)nn3C)c1C,6%,-1.13
